{
  "source": "PubChem BioAssay AID686979",
  "about": "(National Center for Advancing Translational Sciences (NCATS), 2013)",
  "note": "“And” between values parts separate entries of the source, which are not always exact repeats. Equal values may be shown once. About 50,000 (12%) of roughly 420,000 compounds were called active. Inconclusive means that the source gave no clear call. Such entries were picked first, then a sample of the others. The call rests on the fitted dose curve; in most records, active means well fitted inhibition curve with a large enough effect; inconclusive means small, poorly fitted or top-dose-only effect; inactive means flat fitted curve, though single readings scatter. Potencies of inconclusive entries are left out as doubtful fits. On the % scale 0 is the no-effect control and ±100 the full control effect; potency means the concentration at half of the fitted maximal effect; tags describe the fitted curve by direction and shape.",
  "data": [
    {"assay": "qHTS for Inhibitors of human tyrosyl-DNA phosphodiesterase 1 (TDP1): qHTS in cells in presence of CPT; further: nearly all actives have a fitted effect of over 55% in size", "settings": "chicken DT40 Tdp1-/-;hTDP1 cells + 20 nM CPT, ATP luminescence, 48 h; activity change, negative = growth inhibition: at 46.2 µM (top of the series) unless noted", "how_it_was_run": "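Cell growth measured by CellTiter-Glo luminescence after a minimum 48 h, 37 C compound exposure with 20 nM CPT in Tdp1-knockout DT40 cells stably expressing hTDP1, seeded 400/well; qHTS titration format.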", "values": [
      {"smiles": "N#Cc1cn(-c2ccccc2)nc1C(=O)c1ccccc1", "Potency": "inconclusive [inhibitor, single point]"},
      {"smiles": "COc1cc(C(=O)Nc2cc(S(=O)(=O)N3CCOCC3)ccc2N2CCOCC2)cc(OC)c1C", "Potency": "inconclusive [inhibitor, single point]"},
      {"smiles": "CCc1ccc(C(=O)C[n+]2cccc3cc(OC)ccc32)cc1", "Potency": "active: 2.91 µM"},
      {"smiles": "CCC(=O)N(Cc1cc(=O)[nH]c2ccccc12)c1ccc(OC)cc1", "activity change, negative = growth inhibition": "inactive: 11.3%"},
      {"smiles": "CCCCN(C)S(=O)(=O)c1ccc(C(=O)N=c2sc3cc(NC(C)=O)ccc3n2C)cc1", "Potency": "inconclusive [inhibitor, single point]"},
      {"smiles": "O=C(CSc1ccc(C(F)(F)F)cc1[N+](=O)[O-])NCCOc1ccccc1", "Potency": "inconclusive [inhibitor, partial curve, poor fit]"},
      {"smiles": "CC(=O)/C=C/n1c(=S)oc2ccccc21", "Potency": "active: 0.82 µM"},
      {"smiles": "O=C(NC1CCCc2ccccc21)c1cccc(S(=O)(=O)N2CCN(c3ccccc3)CC2)c1", "note": "(stereo unspecified)", "Potency": "inconclusive [inhibitor, full curve, poor fit]"},
      {"smiles": "Nc1nonc1-c1noc(-c2ccccc2)n1", "activity change, negative = growth inhibition": "inactive: 2.75%"},
      {"smiles": "COc1cccc(C(C(=O)NC2CCCC2)N(C(=O)c2ccco2)c2ccccc2F)c1OC", "note": "(stereo unspecified)", "activity change, negative = growth inhibition": "inactive: -21.6%"},
      {"smiles": "O=c1cc(CO)oc(C(Nc2ccccn2)c2ccc(F)cc2)c1O", "note": "(stereo unspecified)", "activity change, negative = growth inhibition": "inactive: -20.9%"},
      {"smiles": "CCC(C)[C@H](N)c1nnc(SCC(=O)c2ccc(Cl)cc2)o1", "note": "(stereo partly specified)", "Potency": "active: 3.98 µM"},
      {"smiles": "CCc1nnc(NC(=O)C(=O)c2cc(C)n(-c3ccccc3)c2C)s1", "activity change, negative = growth inhibition": "inactive: -4.61%"},
      {"smiles": "CCc1nc(SCC(=O)Nc2nc3c(s2)CCCC3)c2ccccc2n1", "Potency": "active: 18.4 µM"},
      {"smiles": "CCOC(=O)c1c(CSC(=N)N)n(C)c2cc(Br)c(OC(C)=O)cc12", "Potency": "active: 16.4 µM"},
      {"smiles": "COc1ccccc1CN1C[C@@H]2C[C@@H](C3=Cc4cc(Cl)ccc4OC3)N3CCC[C@@]23C1=O", "Potency": "inconclusive [inhibitor, single point]"},
      {"smiles": "O=C(c1ccc2nc(N3CCOCC3)sc2c1)N1CCC(Cc2ccccc2)CC1", "Potency": "inconclusive [inhibitor, single point]"},
      {"smiles": "N#Cc1c2ccc(OCC(=O)NCc3ccco3)cc2n2ccccc12", "activity change, negative = growth inhibition": "inactive: -2.37%"},
      {"smiles": "Cc1cc(C)cc(NC(=O)C2CCCN(C(=O)c3cnn(-c4ccccc4)c3-n3cccc3)C2)c1", "note": "(stereo unspecified)", "Potency": "active: 18.4 µM"},
      {"smiles": "COC(=O)Cc1c(C)nc2nc(Cc3ccccc3)[nH]n2c1=O", "Potency": "inconclusive [inhibitor, single point]"},
      {"smiles": "COc1cc(OC)c(N(C)S(=O)(=O)c2cccc(C(=O)OCC(=O)N(C)C3CCCCC3)c2)cc1Cl", "Potency": "inconclusive [inhibitor, single point]"},
      {"smiles": "O=C(N/N=C/c1c(O)ccc2ccccc12)c1cccnc1", "Potency": "active: 1.16 µM"},
      {"smiles": "CCOC(=O)CN1N=C(c2ccc(C)cc2)CCC1=O", "activity change, negative = growth inhibition": "inactive: 22.3%"},
      {"smiles": "Cc1cc(S(=O)(=O)n2ccnc2)c(Cl)cc1Cl", "activity change, negative = growth inhibition": "inconclusive: -10.7% [inhibitor]"},
      {"smiles": "CC(=O)c1ccc(N2CCN(C(=O)c3ccc(S(=O)(=O)NCc4ccco4)cc3)CC2)cc1", "Potency": "active: 20.6 µM"},
      {"smiles": "O=[N+]([O-])c1ccc(N2CCN(C(=S)Nc3ccc(F)cc3)CC2)cc1", "Potency": "active: 5.17 µM"},
      {"smiles": "COc1cc(CNCc2cccc3ccccc23)cc(OC)c1", "Potency": "inconclusive [inhibitor, single point]"},
      {"smiles": "Cc1ccc(-c2nonc2NC(=O)c2ccc(F)cc2)cc1C", "Potency": "inconclusive [inhibitor, partial curve]"},
      {"smiles": "COc1cc(C(=O)NCC(c2ccco2)S(=O)(=O)c2ccccc2)cc(OC)c1OC", "note": "(stereo unspecified)", "Potency": "inconclusive [inhibitor, single point]"},
      {"smiles": "Cc1ccc(NC(=O)C(NC2CCCC2)c2ccccc2)cc1Cl", "note": "(stereo unspecified)", "Potency": "inconclusive [inhibitor, single point]"},
      {"smiles": "Cc1ccc(-c2nnn(CC(=O)Nc3ccccc3N3CCOCC3)n2)cc1", "Potency": "inconclusive [inhibitor, single point]"},
      {"smiles": "C=CCNC(=S)NNC(=O)C(CCCC)CC(C)O", "note": "(stereo unspecified)", "Potency": "inconclusive [inhibitor, single point]"},
      {"smiles": "CC1(C)CC(=O)C(=Cc2cn(-c3ccccc3)nc2-c2ccccc2)C(=O)C1", "Potency": "active: 23.1 µM"},
      {"smiles": "CCOC(=O)[C@]12CCCC=C1N(Cc1ccc(Cl)cc1Cl)C(=O)[C@H](CC(=O)NCCCN1CCCC1=O)C2", "Potency": "inconclusive [inhibitor, single point]"},
      {"smiles": "COc1cccc(OCC(O)CN2CCC(CN3C(=O)c4cccc5cccc(c45)C3=O)CC2)c1", "note": "(stereo unspecified)", "Potency": "active: 8.2 µM"},
      {"smiles": "O=C(CCc1ccccc1)N(Cc1cccnc1)c1nc2c(F)cccc2s1", "Potency": "inconclusive [inhibitor, single point]"},
      {"smiles": "CCCCCCn1nc(C(=O)N(CC(C)C)c2c(N)n(CCCC)c(=O)[nH]c2=O)c2ccccc2c1=O", "Potency": "inconclusive [inhibitor, single point]"},
      {"smiles": "CC(C)C[C@H]1CNC(=S)N1C[C@H]1CCCN1C[C@H](Cc1ccc(O)cc1)N1C[C@H](Cc2ccc(O)cc2)N(CC2CCCCC2)C1=S", "Potency": "active: 25.9 µM"},
      {"smiles": "COc1cc(NC(=O)CSc2nnc(-c3ccncc3)o2)cc(OC)c1OC", "activity change, negative = growth inhibition": "inactive: -11.4%"},
      {"smiles": "CC(C)COC(=O)N1CCCCC1c1cc(C(=O)NCc2ccc(F)cc2)no1", "note": "(stereo unspecified)", "Potency": "inconclusive [inhibitor, single point]"},
      {"smiles": "CN(Cc1cn(C)nc1-c1cccc(Cl)c1)Cc1nccn1C", "Potency": "inconclusive [inhibitor, single point]"},
      {"smiles": "CCc1nn(C(CC)C(=O)NCc2ccc(F)cc2)c(=O)c2cc3occc3n12", "note": "(stereo unspecified)", "Potency": "inconclusive [inhibitor, single point]"},
      {"smiles": "O=C1/C(=C/c2ccccc2Cl)SC(=S)N1CCC(=O)N1CCCCC1CCO", "note": "(stereo unspecified)", "Potency": "active: 16.4 µM"},
      {"smiles": "Cc1ccc(NC(=O)Nc2ccc3c(c2)OCO3)cc1F", "activity change, negative = growth inhibition": "inactive: 12.5%"},
      {"smiles": "CC(C)(C)NC(=O)NC(=O)CN1CCC(Cc2ccccc2)CC1", "activity change, negative = growth inhibition": "inactive: -23.6%"},
      {"smiles": "O=C(CN1C(=O)NC2(CCCCCC2)C1=O)NCCc1ccccc1", "activity change, negative = growth inhibition": "inactive: -16.8%"},
      {"smiles": "CCc1ccc(CN(C)C(=O)CCc2nnc(COc3ccccc3)o2)cc1", "Potency": "inconclusive [inhibitor, single point]"},
      {"smiles": "O=C(c1cc2c(s1)-c1ccccc1OC2)N1CCN(c2ccccc2)CC1", "Potency": "inconclusive [inhibitor, single point]"},
      {"smiles": "CC1=C(C(=O)Nc2ccccc2)C(CC(C)C)n2nc(SCc3ccccc3C)nc2N1", "note": "(stereo unspecified)", "Potency": "inconclusive [inhibitor, single point]"},
      {"smiles": "Cc1ccc(-n2nc(C)c(NC(=O)CCl)c2C)cc1C", "Potency": "active: 8.2 µM"},
      {"smiles": "CC(C)c1cccc(C(C)C)c1NC(=O)CCl", "Potency": "inconclusive [inhibitor, single point]"},
      {"smiles": "CCCOc1ccc(C(=O)N(Cc2ccc(N(C)C)cc2)CC2CCCO2)cc1", "note": "(stereo unspecified)", "Potency": "inconclusive [inhibitor, single point]"},
      {"smiles": "COc1cc(C(CCN2CCCCC2)c2c(OC)cc(OC)c3c(-c4ccccc4)cc(=O)oc23)cc(OC)c1OC", "note": "(stereo unspecified)", "Potency": "active: 18.4 µM"},
      {"smiles": "Cc1nn(CCC(=O)N2CCN(S(=O)(=O)c3ccccc3)CC2)c(C)c1C", "activity change, negative = growth inhibition": "inactive: 0.823%"},
      {"smiles": "O=C(c1ccc(Cl)c(S(=O)(=O)N2CCOCC2)c1)N(Cc1nnc(-c2ccccc2Cl)o1)C1CC1", "Potency": "active: 20.6 µM"},
      {"smiles": "O=C(NCc1ccccc1)c1onc(CSc2ccc(F)cc2)c1C(=O)NCc1ccccc1", "Potency": "active: 18.4 µM"},
      {"smiles": "O=C1CSC(c2cn(-c3ccccc3)nc2-c2cccs2)N1CC1CCCO1", "note": "(stereo unspecified)", "Potency": "inconclusive [inhibitor, single point]"},
      {"smiles": "CCCc1cc(=O)oc2cc(OCc3ccc(C(=O)O)cc3)ccc12", "activity change, negative = growth inhibition": "inactive: 5.64%"},
      {"smiles": "COc1ccc(S(=O)(=O)N2CCN(Cc3cc(OC)c(OC)c(OC)c3)CC2)cc1", "Potency": "inconclusive [inhibitor, single point]"},
      {"smiles": "CCOC(=O)C1CCCCN1C(=O)CCc1nnc(-c2ccc3c(c2)OCO3)o1", "note": "(stereo unspecified)", "activity change, negative = growth inhibition": "inactive: -23.7%"},
      {"smiles": "CCCN(CCC)CCCNC(=O)Cn1ncc2c3ccccc3n(Cc3ccccc3)c2c1=O", "Potency": "inconclusive [inhibitor, single point]"},
      {"smiles": "Cc1cccc(-c2oc3ccc(-c4ccc5c(c4)OCO5)cc3c2C(=O)OCc2ccc(O)cc2)c1", "Potency": "active: 16.4 µM"},
      {"smiles": "Cn1c(=O)c2nc(NCc3ccccc3)sc2n(C)c1=O", "Potency": "inconclusive [inhibitor, single point]"},
      {"smiles": "OC(c1ccc2c(c1)CN(Cc1cccn1-c1cccnc1)CCO2)C1CCCCC1", "note": "(stereo unspecified)", "Potency": "inconclusive [inhibitor, single point]"},
      {"smiles": "CC1CCCC(NC(=O)c2n[nH]c(=O)c3ccccc23)C1C", "note": "(stereo unspecified)", "activity change, negative = growth inhibition": "inconclusive: -33.5% [inhibitor]"},
      {"smiles": "CC(C)c1ccc(NC(=O)C2CCN(S(=O)(=O)c3ccc4c(c3)NC(=O)CO4)CC2)cc1", "Potency": "inconclusive [inhibitor, single point]"},
      {"smiles": "COc1cc2c(cc1O)CC[C@@H]1[C@@H]2CC[C@]2(C)[C@@H](O)CC[C@@H]12", "Potency": "active: 1.12 µM and active: 1.84 µM"},
      {"smiles": "CCOC(=O)C1CCN(C2CCN(Cc3nc(-c4ccccc4)no3)CC2)CC1", "Potency": "inconclusive [inhibitor, partial curve, poor fit]"},
      {"smiles": "COc1ccc(-c2noc(CNS(=O)(=O)c3ccccc3)n2)cc1", "Potency": "inconclusive [inhibitor, single point]"},
      {"smiles": "COc1ccccc1OCc1nnc(SCC(N)=O)n1-c1ccccc1", "activity change, negative = growth inhibition": "inactive: 12.4%"},
      {"smiles": "COc1cc(OC)cc(-c2c(-c3ccc(F)cc3)c3cc(-c4ccc5cc[nH]c5c4)ccc3n2C)c1", "Potency": "inconclusive [inhibitor, single point]"}
    ]}
  ]
}
